In PubChem BioAssay AID1345082 (National Center for Advancing Translational Sciences (NCATS), 2018):
Screen size: about 94,000 compounds; about 4,000 (4.3%) were called active. This list was built around the results that the source calls inconclusive (neither active nor inactive); the mix of calls is not that of the screen. The call rests on the fitted dose curve; in most records, active means well fitted inhibition curve with a large enough effect; inconclusive means small, poorly fitted or top-dose-only effect; inactive means no such curve, though single readings can be large or run the other way. A potency beside an inconclusive call is a rough fit, not a confirmed value.
On the % scale 0 is the no-effect control and ±100 the full control effect; potency means the concentration at half of the fitted maximal effect; tags describe the fitted curve by direction and shape.

Test: Cytotoxic Profiling in NIH 3T3 Cell Line of Diverse Libraries Using Quantitative High-Throughput Screening; further: nearly all actives have a fitted effect of over 55% in size
Conditions: NIH 3T3 viability, CellTiter-Glo ATP luminescence, 48-72 h; activity change, negative = cytotoxicity: at 96.7 µM (top of the series); series mostly up to 96.7 µM
Summary of the method: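 Cells were seeded at 400 per well, treated with pin-transferred compound, and kept 48 or 72 hr at 37 °C before CellTiter-Glo addition and luminescence imaging of cellular ATP.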
In the case of `CN(c1cc(=O)c2ccnc(Nc3ccn(C)n3)c2o1)C1CCOCC1`, the Potency is reported as inconclusive: 63.1 µM [inhibitor, partial curve, poor fit]. In the case of `CCOC(=O)C1=CN(CC(=O)Nc2ccc(C)c(C)c2)S(=O)(=O)N=C1C`, the “activity change, negative = cytotoxicity” value is reported as inactive: -25.9%. In the case of `Cn1cc(CN2C[C@H](C(=O)Nc3cccc(F)c3)C[C@@H]2c2cccc(C(F)(F)F)c2)cn1`, the Potency is reported as inconclusive: 70.8 µM [inhibitor, single point]. With `COc1ccccc1CN1CCc2nc(C(=O)Nc3ccccc3)oc2CC1` the Potency was inconclusive: 89.1 µM [inhibitor, partial curve]. With `CCC1c2nccn2CCCN1C(=O)Cn1c(=O)oc2ccccc21` (configuration not stated) the “activity change, negative = cytotoxicity” value was inactive: -19.2%. In the case of `Cc1ccc(-c2cc3c(=O)n(CCNC(=O)c4ccc5c(c4)OCO5)ccn3n2)c(C)c1`, the “activity change, negative = cytotoxicity” value is reported as inactive: -1.4%. With `COc1ccc(CN(C)Cc2ncccc2C(=O)O)cc1` the “activity change, negative = cytotoxicity” value was inactive: 2.09%. In the case of `O=S(=O)(NC1CCN(c2ccc3nnc(-c4ccccc4)n3n2)CC1)c1cccs1`, the Potency is reported as inconclusive: 31.6 µM [inhibitor, full curve]. In the case of `CNC(=O)c1cccc(-c2ccc(C(C)(C)C#N)cc2)n1`, the Potency is reported as inconclusive: 44.7 µM [inhibitor, partial curve, poor fit]. With `COc1ccc(CNC(=O)[C@@]23CCCC[C@H]2N(CCC(C)C)C(=O)CC3)cc1OC` the Potency was inconclusive: 79.4 µM [inhibitor, partial curve, poor fit]. In the case of `CCNC(=O)CCc1c(C)nn(-c2cccc(C)c2)c1Oc1ccccc1`, the Potency is reported as inconclusive: 50.1 µM [inhibitor, partial curve, poor fit]. With `CC1(CNc2ccccc2)COc2ccc(C(=O)N3CC(O)C3)cc2N1` (configuration not stated) the Potency was inconclusive: 79.4 µM [inhibitor, partial curve]. With `O=C(c1ccccc1F)N1CCCC(c2nn(-c3ccc(F)cc3)c(=O)[nH]2)C1` (configuration not stated) the “activity change, negative = cytotoxicity” value was inactive: -6.26%. In the case of `O=C(c1ccc(C(F)(F)F)cc1)N1CCCC2(C1)C(=NC1CCCCC1)NC(=O)N2c1cc(F)cc(F)c1` (configuration not stated), the Potency is reported as inconclusive: 44.7 µM [inhibitor, partial curve, poor fit]. With `CCNC(=O)N1CCOc2ccc(CCC(=O)N3CCCCC3c3cccnc3)cc2C1` (configuration not stated) the Potency was inconclusive: 70.8 µM [inhibitor, single point]. For `CN1CC2(CCN(C3CCN(Cc4ccccc4)CC3)CC2)CC1C(=O)N1CCOCC1` (configuration not stated), the Potency was inconclusive: 56.2 µM [inhibitor, partial curve, poor fit]. For `Cc1ccc(C(=O)N2CCCC3(CCNCC3)CC2)cc1Cl`, the Potency was active: 79.4 µM. In the case of `O=C(c1ccoc1)N1CCC(c2noc(COc3ccc(F)cc3)n2)CC1`, the Potency is reported as inconclusive: 39.8 µM [inhibitor, partial curve, poor fit]. With `CCCCc1nc(Cl)c(CN2CCCC(COc3ccccc3C(=O)NC3CC3)C2)[nH]1` (configuration not stated) the Potency was inconclusive: 44.7 µM [inhibitor, partial curve, poor fit]. With `O=C1CC2(CCN(C(=O)c3ccc4c(c3)OCO4)CC2)Oc2ccccc2N1` the Potency was inconclusive: 50.1 µM [inhibitor, single point]. In the case of `COc1cccc(C(=O)N2CCc3nc(C4CC4)nc(-c4ccc(O)cc4)c3CC2)c1`, the Potency is reported as inconclusive: 70.8 µM [inhibitor, single point]. In the case of `Cc1ccccc1N1Cc2c(NCCCc3ccccc3)ncnc2N(C)CC1=O`, the Potency is reported as active: 44.7 µM. For `COc1ccccc1C(=O)N1CCC2(CC1)CC(c1cccnc1)=NO2`, the “activity change, negative = cytotoxicity” value was inactive: -13.2%. For `Cc1ccc(C(=O)N[C@@H]2CN(Cc3ccncc3)C[C@H]2CN(C)C)c(C)c1`, the Potency was inconclusive: 79.4 µM [inhibitor, partial curve, poor fit]. In the case of `COc1cccc(-c2cc(C(=O)N3CCN(Cc4ccccc4)CC3)c3cnn(C)c3n2)c1`, the Potency is reported as inconclusive: 44.7 µM [inhibitor, partial curve, poor fit]. With `O=C(Nc1ccc(F)cc1)N[C@H]1[C@H](O)[C@@H](N2CCC(Cc3ccccc3)CC2)[C@@H]2OC[C@H]1O2` the Potency was inconclusive: 50.1 µM [inhibitor, partial curve, poor fit]. With `COCCn1ncc(N2CCCC(CC(=O)Nc3ccc(Cl)cc3)C2)cc1=O` (configuration not stated) the Potency was active: 31.6 µM. For `O=C(c1ccccc1OCC1CCCN(CCCc2ccccc2)C1)N1CCCC1` (configuration not stated), the “activity change, negative = cytotoxicity” value was inactive: -27.3%. For `CC(=O)Nc1cccc(-c2cn(C)c(=O)n3cc(COc4ccccc4)nc23)c1`, the Potency was inconclusive: 100 µM [inhibitor, partial curve, poor fit]. For `COC(=O)[C@@H]1Cc2c([nH]c3ccccc23)[C@H]2C[C@@H](NCCO)C[C@@H](c3ccccc3F)N21`, the Potency was active: 28.2 µM. In the case of `Cc1nn(-c2ccccc2)c2c1C(C(C)C)N(C1CCN([S+](=O)([O-])c3cccs3)CC1)C2=O` (configuration not stated), the Potency is reported as inconclusive: 50.1 µM [inhibitor, partial curve, poor fit]. In the case of `COc1ccccc1CC(=O)N1CCC(Cc2nc(-c3ccccc3)no2)CC1`, the Potency is reported as inconclusive: 44.7 µM [inhibitor, partial curve, poor fit]. With `Cc1cc(Br)ccc1NC(=O)Cn1nc2c(cc1=O)CCCCC2` the Potency was inconclusive: 79.4 µM [inhibitor, single point]. In the case of `Cc1noc(C)c1-c1cc2cc(C(C)C)oc2c(NC(C)C)n1`, the Potency is reported as active: 79.4 µM. For `COCC(=O)Nc1ccc2c(c1)CN(CCc1ccccc1)C(=O)C(C)O2` (configuration not stated), the Potency was inconclusive: 15.8 µM [inhibitor, partial curve, poor fit]. For `COCCNC(=O)[C@@H]1[C@H](c2cc(OC)c(OC)c(OC)c2)c2cc3c(cc2[C@H](O)[C@H]1CO)OCO3`, the Potency was inconclusive: 50.1 µM [inhibitor, partial curve, poor fit]. For `O=C(C1CCCN1C(=O)Nc1ccccc1)N1CCC(N2CCCC2=O)CC1` (configuration not stated), the “outcome” value was “inactive”. For `O=C(Cc1ccccc1O)N1CCCC(CCc2c(F)cccc2F)C1` (configuration not stated), the Potency was inconclusive: 50.1 µM [inhibitor, partial curve, poor fit]. For `O=C1NCN(Cc2ccc(Cl)cc2)C12CCN(Cc1cccnc1)CC2`, the Potency was inconclusive: 50.1 µM [inhibitor, partial curve, poor fit]. With `O=S(=O)(c1ccccc1F)N1CCC(F)(c2nc(Cc3ccccc3)no2)CC1` the Potency was inconclusive: 28.2 µM [inhibitor, full curve]. With `O=C(COc1ccccc1)NC[C@H]1Cn2c(-c3ccc(Cl)cc3)cnc2CO1` the Potency was inconclusive: 79.4 µM [inhibitor, partial curve, poor fit]. In the case of `Cc1ccc(-n2cccc2CC(=O)N2CCCC2)cc1`, the “activity change, negative = cytotoxicity” value is reported as inactive: -23.2%. For `O=C(NCc1ccccc1)C1CCN(C(=O)c2ncn3c2COC(c2ccc(Cl)cc2)C3)CC1` (configuration not stated), the “outcome” value was “inactive”. For `Cc1cnc(CN2CCC3(CC2)CCN(C(=O)Cc2cccnc2)CC3CO)[nH]1` (configuration not stated), the Potency was inconclusive: 63.1 µM [inhibitor, partial curve, poor fit]. In the case of `Cc1nncn1C1CCN(S(=O)(=O)c2ccc(F)c(Cl)c2)CC1`, the “activity change, negative = cytotoxicity” value is reported as inactive: -11.7%. With `O=C(NCc1ccc(F)cc1)C1CCN(C(=O)c2ccc(-c3cccs3)cc2)CC1` the Potency was inconclusive: 11.2 µM [inhibitor, full curve, poor fit]. In the case of `CC(=O)N1CCCC1C(=O)N1CCC2(CC1)CC(=O)Nc1ccccc1O2` (configuration not stated), the “activity change, negative = cytotoxicity” value is reported as inactive: -12.2%. In the case of `O=C1[C@@H]2C[C@@H](CN2Cc2cccnc2)Oc2ccccc2N1CC1CC1`, the Potency is reported as inconclusive: 56.2 µM [inhibitor, partial curve, poor fit]. In the case of `CCOC(=O)C1(Cc2ccccc2F)CCCN(C(=O)c2ccc(-n3ccnc3)cc2)C1` (configuration not stated), the Potency is reported as inconclusive: 28.2 µM [inhibitor, full curve]. For `C=CCC1(CO)CCCN(CCS(=O)(=O)c2ccccc2)C1` (configuration not stated), the Potency was inconclusive: 79.4 µM [inhibitor, partial curve, poor fit]. In the case of `COc1ccc(CC(=O)N2CCC(N3C(=O)c4c(c(C)nn4-c4ccccc4)C3C)C2)cc1` (configuration not stated), the Potency is reported as inconclusive: 7.94 µM [inhibitor, full curve, poor fit]. With `O=C(c1nnc(CNc2ccc(F)cc2)n1-c1ccccc1)N1CCC[C@@H]1C(c1ccccc1)c1ccccc1` the Potency was inconclusive: 17.8 µM [inhibitor, full curve, poor fit]. For `CCOC(=O)CC1CCCCN1C(=O)CCC1(Cc2ccc3ccccc3c2)CCC(=O)N1` (configuration not stated), the “activity change, negative = cytotoxicity” value was inactive: -10.1%. With `COc1ccc(CCc2nc3nccc(-c4ccco4)n3n2)cc1` the Potency was inconclusive: 70.8 µM [inhibitor, single point]. For `Cc1nc(-c2cccc(Cl)c2)n(Cc2ccc(F)c(F)c2)c(=O)c1CCO`, the Potency was inconclusive: 50.1 µM [inhibitor, partial curve, poor fit]. In the case of `O=C(c1nc(-c2ccc(Cl)cc2)c2ccccn12)N1CCOCC1`, the Potency is reported as inconclusive: 79.4 µM [inhibitor, partial curve]. With `Cn1ncc2c(C(=O)NCc3cccnc3)cc(-c3ccccc3F)nc21` the Potency was inconclusive: 44.7 µM [inhibitor, partial curve, poor fit]. In the case of `CN(C)C(=O)C1CN(C(=O)CCC(=O)c2ccc(F)cc2)CC12CCOCC2` (configuration not stated), the “activity change, negative = cytotoxicity” value is reported as inactive: -1.95%. For `COc1ccc(Cn2c(=O)c(C(=O)NCc3ccc(F)cc3)nc3cccnc32)cc1`, the Potency was inconclusive: 70.8 µM [inhibitor, single point]. For `CCC(=O)N1CCCN(C)c2ccccc21`, the “activity change, negative = cytotoxicity” value was inactive: 1.75%. For `Cc1noc(C)c1S(=O)(=O)N1CCC(CCOc2ccccc2)C1` (configuration not stated), the Potency was inconclusive: 31.6 µM [inhibitor, partial curve, poor fit]. In the case of `Cc1cc(CNC(=O)c2ccc3c(c2)n(CC2CC2)c(=O)n3C2CCCCC2)on1`, the Potency is reported as inconclusive: 56.2 µM [inhibitor, partial curve, poor fit].
